Assay results from PubChem BioAssay AID1963576 (National Center for Advancing Translational Sciences (NCATS), 2024).
About 60 (0.1%) of roughly 46,000 compounds were called active. Inconclusive means that the source gave no clear call. Such entries were picked first, then a sample of the others. The call rests on the fitted dose curve; in most records, active means well fitted inhibition curve with a large enough effect; inconclusive means small, poorly fitted or top-dose-only effect; inactive means no such curve, though single readings can be large or run the other way. No potency is given beside an inconclusive call; the fits are too rough.

assay: Primary qHTS assay for Inhibitors of ovarian cancer metastasis using an organotypic tumor microenvironment (TME) model.; further: nearly all actives have a fitted effect of over 65% in size;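 on activity change, negative = inhibition: plate controls were DMSO wells for no effect and tomatine positive control wells for full effect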;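 on potency: count of GFP cancer cells still attached after washing and fixation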; details: SKOV3ip1-GFP adhesion/invasion on 3D omental model, fluorescence; activity change, negative = inhibition: at 45.8 µM (top of the series); series mostly up to 45.8 µM
In short: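 A 3D layer of primary human omental fibroblasts, mesothelial cells, fibronectin and collagen I, grown 48 hr, received SKOV3ip1-GFP cells in serum-free medium plus compounds at 0.36-46 umol/L. After 2 hr RT and 16 hr 37 C, fixed adherent GFP cells were counted; normalized to DMSO and tomatine.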
Potency means the concentration at half of the fitted maximal effect; tags describe the fitted curve by direction and shape.

| SMILES | Potency | activity change, negative = inhibition |
| --- | --- | --- |
| CC(=O)c1ccc(Nc2nc3ccccc3nc2-n2nc(C)cc2C)cc1 | inconclusive [inhibitor, single point] | – |
| CN1CCN(Cc2c(O)ccc3cc(-c4ccccc4)c(=O)oc23)CC1 | inactive | – |
| CCOC(=O)c1cccc(Nc2nc(C(=O)OCC)nc3ccccc23)c1 | inactive | – |
| Fc1ccc(Nc2c(-c3c[nH]c4ccccc34)nc3ccccn23)cc1 | inactive | – |
| CCc1ccccc1Nc1nn2c(=O)c3ccc(C(=O)NCc4ccc(C)cc4)cc3nc2s1 | inactive | – |
| Cc1cccc(Cn2c(C)c(C)c3cc(C(=O)NCc4ccco4)ccc32)c1 | inconclusive [inhibitor, single point] | – |
| Cc1nn(C(=O)c2ccccc2)c(C)c1Sc1ccc(Cl)cc1 | inconclusive [inhibitor, single point] | – |
| COc1ccc(/C=C\c2onc(C)c2S(=O)(=O)N2CCC(C(=O)Nc3ccc(Cl)cc3)CC2)cc1 | inactive | – |
| CCOc1ccc(/C=C/c2nc(C#N)c(N3CCCCC3)o2)cc1 | inconclusive [inhibitor, partial curve, poor fit] | – |
| COc1ccc(NC(=O)C2CCCN(S(=O)(=O)c3ccc4c(c3)CCCC(=O)N4)C2)cc1OC (configuration not stated) | inactive | – |
| CCC(Sc1ncnc2sc3c(c12)CCCC3)C(=O)OC(C)C (configuration not stated) | inactive | – |
| COc1ccc2nc(NC(=O)c3nc(S(=O)(=O)Cc4ccccc4)ncc3Cl)sc2c1 | inconclusive [inhibitor, partial curve, poor fit] | – |
| Cc1ccc(NC(=O)CSc2n[nH]c(-c3ccc(F)cc3)n2)cc1F | inconclusive [inhibitor, single point] | – |
| O=C(CCS(=O)(=O)c1nc(-c2ccc3c(c2)OCO3)cc(C(F)(F)F)n1)Nc1ccccc1F | inconclusive [inhibitor, partial curve, poor fit] | – |
| Cc1cc(C)c(NC(=O)Cn2c(=O)n(Cc3ccco3)c(=O)c3ccc(C(=O)NC4CCCC4)cc32)c(C)c1 | inactive | – |
| Cc1cccc(N2CCN(C(=O)c3cnn(-c4cccc(Cl)c4C)c3C3CCNCC3)CC2)c1C | inconclusive [inhibitor, single point] | – |
| O=C(Cc1ccccc1)Nc1cccc(-c2cn3cccnc3n2)c1 | inactive | – |
| COCCN1C(=O)c2[nH]nc(-c3cc(C)ccc3O)c2C1c1ccc(C(C)C)cc1 (configuration not stated) | inconclusive [inhibitor, single point] | – |
| Clc1ccc(CCC(Cn2ccnc2)Sc2c(Cl)cccc2Cl)cc1 (configuration not stated) | inconclusive [inhibitor, single point] | – |
| Cc1cncn1CCc1nc2c3ccccc3nc(SCC(=O)Nc3cccc(Cl)c3)n2n1 | inconclusive [inhibitor, single point] | – |
| CC1CCCN(C(=O)c2cc3c(Cl)nc4ccccc4c3s2)C1 (configuration not stated) | inactive | – |
| Cc1ccc(/C=C/c2nc3ccccc3[nH]2)cc1 | inconclusive [inhibitor, partial curve, poor fit] | – |
| CC1CCCCN1c1nnc(NC(=O)Nc2ccccc2F)s1 (configuration not stated) | inactive | – |

| SMILES | Potency | activity change, negative = inhibition |
| --- | --- | --- |
| Cc1ccccc1OCC(O)Cn1c(=N)n(CCN2CCCCC2)c2ccccc21 (configuration not stated) | inconclusive [inhibitor, full curve, poor fit] | – |
| CCc1cccc(CC)c1NC(=O)CN1C(=O)C(=O)c2ccccc21 | inactive | – |
| Cc1nc2nc(SCC(=O)NCc3ccccc3Cl)nn2c(C)c1Cc1ccccc1 | inconclusive [inhibitor, partial curve, poor fit] | – |
| COc1cc(NS(=O)(=O)c2ccc3[nH]c4c(c3c2)CCCCCC4)cc(OC)c1 | inactive | – |
| Cc1ccc(NS(=O)(=O)c2ccc3nc(-c4ccccc4)[nH]c3c2)c(Cl)c1 | inconclusive [inhibitor, single point] | – |
| CCOC(=O)c1cccc(NC(=O)Cn2ncc3c4ccccc4n(Cc4ccccc4)c3c2=O)c1 | inconclusive [inhibitor, single point] | – |
| Cc1ccc(NC(=O)CSc2nc3ncccc3[nH]2)cc1F | inconclusive [inhibitor, single point] | – |
| Cc1ccc(S(=O)(=O)Cc2nc(-c3ccc(C(=O)NCc4ccccc4)cc3)oc2C)cc1 | inactive | – |
| Cc1cccc(NC(=O)c2c(NC(=O)C(F)(F)F)sc3c2CCCCC3)c1 | inconclusive [inhibitor, full curve] | – |
| CCCCCCCCCCCCCCCC(=O)O[C@H]1[C@@H](O)[C@@H](O)[C@@H]([C@H](NC(=O)[C@@H]2C[C@@H](CCC)CN2C)[C@H](C)Cl)O[C@@H]1SC | inactive | – |
| COc1ccc(-c2nc(SCC(=O)NCCc3ccc(OC)c(OC)c3)n[nH]2)cc1 | inconclusive [inhibitor, single point] | – |
| Cc1c(Cl)cccc1-c1ccc(C(=O)Nc2ccc(F)cc2)o1 | inactive | – |
| CCOC(=O)c1cnc2ccc(OC)cc2c1NCCc1ccccc1 | inactive | – |
| CCOC(=O)c1cc(-c2ccccc2)n(CC(=O)NC(C)c2ccccc2)c1C (configuration not stated) | inconclusive [inhibitor, single point] | – |
| COc1ccc(Cl)cc1NC(=O)CCS(=O)(=O)c1nc(-c2cccs2)cc(C(F)(F)F)n1 | inconclusive [inhibitor, single point] | – |
| CC(C)COc1ccc(C(=O)Nc2cccc(-c3nc4ccccc4[nH]3)c2)cc1 | inconclusive [inhibitor, single point] | – |
| CC1CCC(C(=O)NC(C(=O)OCC(=O)c2ccc(Br)cc2)C(C)C)CC1 (configuration not stated) | inconclusive [inhibitor, single point] | – |
| Cc1ccc(S(=O)(=O)c2cn(CC(=O)Nc3cccc(C)c3)c3cc4c(cc3c2=O)OCO4)cc1 | inconclusive [inhibitor, single point] | – |
| Cc1c(Cl)cccc1Nc1nc2ccc(C(=O)c3ccccc3)cc2n2cnnc12 | inactive | – |
| Cc1cccc(C(C)C)c1NC(=O)C(NS(=O)(=O)c1cccc2nsnc12)c1ccccc1 (configuration not stated) | inconclusive [inhibitor, single point] | – |
| COCCCNC(=O)c1ccc(-c2nc(CS(=O)(=O)c3ccc(C)cc3)c(C)o2)cc1 | inactive | – |
| COc1ccc(-c2nc(CSCC(=O)N3CCN(c4cc(Cl)ccc4C)CC3)c(C)o2)cc1 | inconclusive [inhibitor, single point] | – |
| CCOc1ccc(NC(=O)CCc2c(C)nn(-c3ccc(N4CCCC4)nn3)c2C)cc1 | inactive | – |

| SMILES | Potency | activity change, negative = inhibition |
| --- | --- | --- |
| O=C(NCCCN1CCCCCC1)c1ccc2c(c1)sc1nc(-c3ccccc3)cn12 | inconclusive [inhibitor, single point] | – |
| CCC(C)NC(=O)c1nn(-c2ccc(C)cc2)nc1CO (configuration not stated) | inconclusive [inhibitor, single point] | – |
| CC(C)(C)c1ccc(C(=O)NCC(c2cccnc2)N2CCc3ccccc3C2)cc1 (configuration not stated) | inconclusive [inhibitor, single point] | – |
| COc1cc(OC)cc(C(=O)Nc2nc(-c3nnn(-c4ccc(C)cc4)c3C)ns2)c1 | inactive | – |
| Cc1cccc(C)c1Nc1sc(C(=O)c2ccccc2)c(N)c1S(=O)(=O)c1ccccc1 | inconclusive [inhibitor, single point] | – |
| CC1CCCCN1CCNC(=O)c1ccc(Cn2c(SCc3ccccc3)nc3cccnc32)cc1 (configuration not stated) | inactive | – |
| O=C(CN1CCN(Cc2ccc(F)cc2)C1=O)NCc1ccc(F)cc1 | inactive | – |
| O=C(COc1ccccc1)N(Cc1cccnc1)c1nc2c(F)cc(F)cc2s1 | inconclusive [inhibitor, single point] | – |
| Cc1ccccc1C(=O)Nc1cccc(NC(=O)c2ccc(C(C)(C)C)cc2)c1 | inconclusive [inhibitor, partial curve, poor fit] | – |
| Cc1ccc(C)c(N2CCN(S(=O)(=O)c3ccc4[nH]c5c(c4c3)CCCC5)CC2)c1 | inconclusive [inhibitor, single point] | – |
| Cc1ccccc1CNC(=O)Cn1nc(C)c2nn(-c3ccc(Cl)cc3)c(C)c2c1=O | inconclusive [inhibitor, single point] | – |
| O=C(Nc1ccc(-c2nc3cc(Cl)ccc3o2)cc1)c1cc(Br)ccc1Cl | inconclusive [inhibitor, partial curve] | – |
| COc1cc(C(=O)Nc2ccc3nc4n(c(=O)c3c2)CCCCC4)cc(OC)c1OC | inactive | – |
| CC(C)(C)OC(=O)N[C@H]1CCCCCC=C[C@@H]2C[C@@]2(C(=O)NS(=O)(=O)C2CC2)NC(=O)[C@@H]2C[C@@H](OC(=O)N3Cc4cccc(F)c4C3)CN2C1=O | inactive | – |
| Cc1ccc(F)c(NC(=O)Nc2ccc(-c3cccc4[nH]nc(N)c34)cc2)c1 | inactive | – |
| COc1ccc(OC)c(Nc2nc(-c3ccc(C)cc3)nc3ccccc23)c1 | inconclusive [inhibitor, single point] | – |
| O=C(CC1N=C2c3ccccc3N=C(SCc3ccc(Cl)cc3)N2C1=O)NCCc1ccccc1 (configuration not stated) | inactive | – |
| COCCCNC(=O)c1ccc2c(c1)N=C(C)c1c(C)ccc(C)c1S2 | inconclusive [inhibitor, full curve, poor fit] | – |
| Cc1ccc(OCC(=O)Nc2ccc(Cl)c(-c3nc4ncccc4o3)c2)cc1C | inactive | – |
| O=C(COc1ccc(F)cc1)Nc1ccc(OCc2cc(=O)n3ccsc3n2)cc1 | – | inconclusive: -32% [inhibitor] |
| Cc1ccc(-c2cnc(C3CC3)o2)cc1S(=O)(=O)Nc1cccc(C#N)c1 | inactive | – |
